Among all 310,000 compounds or so, about 14,000 (4.5%) showed an effect of 50% or more. The effect is printed as a negative number. This is one part of the list.
Target: human ether-à-go-go-related gene (hERG) potassium channel (human, UniProt Q12809)
Test: primary screen, population patch clamp on CHO cells stably expressing hERG
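Note: peak tail current of the secondary pulse compared with the same well before compound.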

human ether-à-go-go-related gene (hERG) potassium channel, sequence (Q12809 whole entry, looked up): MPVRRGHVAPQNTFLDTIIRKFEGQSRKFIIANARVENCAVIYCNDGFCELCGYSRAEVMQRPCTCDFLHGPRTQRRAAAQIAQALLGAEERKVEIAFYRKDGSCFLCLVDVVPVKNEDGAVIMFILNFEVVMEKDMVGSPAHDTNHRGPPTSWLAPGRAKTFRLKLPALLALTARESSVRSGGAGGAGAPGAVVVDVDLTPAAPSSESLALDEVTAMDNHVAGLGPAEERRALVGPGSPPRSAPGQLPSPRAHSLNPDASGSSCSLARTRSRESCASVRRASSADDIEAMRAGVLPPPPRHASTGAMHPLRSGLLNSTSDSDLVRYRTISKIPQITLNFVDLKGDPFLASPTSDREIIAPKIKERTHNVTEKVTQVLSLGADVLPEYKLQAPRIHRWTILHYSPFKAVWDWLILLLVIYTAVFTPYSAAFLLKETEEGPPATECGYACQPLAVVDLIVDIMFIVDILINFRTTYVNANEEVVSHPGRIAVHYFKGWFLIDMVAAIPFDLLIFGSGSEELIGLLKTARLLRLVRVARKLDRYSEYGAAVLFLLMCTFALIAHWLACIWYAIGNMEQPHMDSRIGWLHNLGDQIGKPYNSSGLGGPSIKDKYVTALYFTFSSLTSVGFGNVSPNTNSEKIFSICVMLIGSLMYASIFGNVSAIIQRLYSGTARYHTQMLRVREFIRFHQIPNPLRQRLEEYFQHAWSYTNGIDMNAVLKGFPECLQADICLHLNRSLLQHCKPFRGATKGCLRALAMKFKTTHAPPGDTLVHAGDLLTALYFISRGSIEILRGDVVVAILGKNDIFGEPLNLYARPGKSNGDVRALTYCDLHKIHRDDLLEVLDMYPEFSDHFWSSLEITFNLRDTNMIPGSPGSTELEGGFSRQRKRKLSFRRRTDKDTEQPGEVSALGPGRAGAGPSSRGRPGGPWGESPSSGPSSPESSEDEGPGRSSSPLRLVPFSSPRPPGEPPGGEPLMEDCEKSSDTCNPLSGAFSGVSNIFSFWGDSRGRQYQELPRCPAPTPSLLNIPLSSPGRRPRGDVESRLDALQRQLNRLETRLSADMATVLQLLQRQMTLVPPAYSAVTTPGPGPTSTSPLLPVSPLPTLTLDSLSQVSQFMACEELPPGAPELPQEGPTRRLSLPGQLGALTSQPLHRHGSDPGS

SMILES	hERG current change (%, negative = inhibition) at 10uM [%]
Cc1cc(C(=O)CSc2nnc(-c3ccccc3)n2Cc2ccc3c(c2)OCO3)c(C)n1C	14
N#Cc1ccccc1NC(=O)c1ccc2c(c1)OCCO2	-0.635
O=C(Nc1ccccc1)Nc1nnc(-c2ccccc2)s1	7.02
COc1ccc(CCNC(=O)CN2CCN(S(=O)(=O)c3ccc(Cl)cc3)CC2)cc1OC	-25
O=c1[nH]nc(SCc2nnc(-c3cccc(Cl)c3)o2)n1C1CCCCC1	14.1
COc1ccc(CC(=O)N2CCN(c3ccccc3)CC2)cc1	5.41
O=C(O)C(O)(c1ccccc1)C1CCCC1 (stereo not shown)	19.2
Cc1c(C(C)NC(=O)Nc2ccc(F)cc2F)cnn1C (stereo not shown)	15.2
COCCNC(=O)CCc1nnc(Cc2ccc(-c3ccccc3)cc2)o1	14.5
CCN(CC)S(=O)(=O)c1ccc(NC(=O)COC(=O)c2ccc(NC(=O)CC#N)cc2)cc1	20.5
COC(=O)CSc1nc2c(cnn2-c2ccc(Cl)cc2)c(=O)[nH]1	18.2
CC(=O)N1CCN(c2ccccc2NC(=O)c2ccco2)CC1	-38.9
Cc1cc(Nc2ccc(Br)cc2F)n2ncnc2n1	-4.69
Cc1ccc(Nc2nnc(SCc3cc(=O)n4cc(C)ccc4n3)s2)cc1	-36.6
C=CCN1C(=O)c2ccc(C(=O)N(CC)CC(=O)Nc3ccc(OC)cc3)cc2C1=O	-20
CN(C)CCNC(=O)c1c(NC(=O)c2ccccc2)sc2c1CCCC2	-25.9
CC(C)C(NC(=O)c1ccc(Cl)cc1)C(=O)NC1=NCCS1 (stereo not shown)	-0.136
COc1cc2c3c(c1OC)C1(C=CC(=NO)C=C1)CC3N(C(C)=O)CC2 (stereo not shown)	13.8
O=C(CN1C(=O)CN=C(c2ccccc2)c2ccccc21)NCc1ccco1	9.96
Cc1cc(C)cc(N(C(=O)c2ccccn2)C(C(=O)NC2CCCCC2)c2cccs2)c1 (stereo not shown)	-4.72
CC(CC(F)(F)F)N1CCC(n2nccc2NC(=O)CCCc2ccccc2)CC1 (stereo not shown)	-28.7
O=S(=O)(c1ccccc1)c1nc(-c2ccco2)oc1NCCCn1ccnc1	-65.6

SMILES	hERG current change (%, negative = inhibition) at 10uM [%]
COc1ccc2cc(C(=O)C3CCCN(C(=O)CCc4ccccn4)C3)ccc2c1 (stereo not shown)	-45.2
CC(=O)c1ccc(N2CCN(C(=O)CCS(=O)(=O)c3ccc(C)cc3)CC2)cc1	-41
CCOC(=O)c1cc(C(C)=O)c(=O)[nH]c1C	12
Brc1ccc(-n2cccc2/C=N/n2cnnc2)cc1	-25.1
NC(=O)/C(=C/c1ccco1)NC(=O)/C=C/c1ccccc1	-5.56
Cn1cnnc1SCc1ccccc1Br	6.03
Cc1ccc(O)c(C(=O)c2coc(=N)c(C(=O)NC(C)C)c2)c1	-18.5
CS(=O)(=O)CCC(C(=O)n1nnc2ccccc21)N1C(=O)c2ccccc2C1=O (stereo not shown)	-3.22
O=C(COc1ccc2ccc(=O)oc2c1)Nc1c(Cl)cccc1C(F)(F)F	7.37
CCN1C(=O)[C@@H]2[C@@H](c3ccc(-c4ccc(C(C)=O)cc4)c(OC)c3)N3CCCC[C@@]3(C(=O)OC)[C@@H]2C1=O.O=C(O)C(F)(F)F	6.13
CCn1c(=O)c(-c2nc3ccccc3[nH]2)c(O)c2ccccc21	18.7
N#Cc1nc(-c2ccccc2Cl)oc1N1CCN(C(=O)c2ccco2)CC1	-9.47
CCOC(=O)C1Cc2ccccc2C(=O)O1 (stereo not shown)	14.5
O=C(CCSc1nnnn1-c1ccccc1)N1CCOCC1	-6.01
COP(=O)(CC(=O)O)c1ccccc1 (stereo not shown)	-5.99
Cc1cc(C)cc(NC(=O)N2CCCN(c3ncccc3[N+](=O)[O-])CC2)c1	-9.01
Cc1cc(C(=O)COc2ccc(Cl)cc2Br)c(C)n1C	11.7
CC(/C=N/NC(=O)NC1CCCCC1)=C\c1ccccc1	76.6
CN(CC(=O)NCCc1ccc(S(N)(=O)=O)cc1)Cc1ccc(Cl)cc1Cl	-1.25
O=C(O)COc1ccccc1/C=N/NC(=O)CSc1nc2ccccc2n1Cc1ccc(Cl)cc1	26.6
C=CCn1c(SCC(=O)Nc2ccc(OC)cc2)nnc1-c1cnccn1	-23.1
FC(F)(F)c1ccc2c(c1)[nH]c(=S)n2C1CC1	13.9

SMILES	hERG current change (%, negative = inhibition) at 10uM [%]
Cc1cccc(NC(=O)c2sc3nc(-c4ccccc4)cn3c2C)n1	-6.16
NC(=O)[C@@H]1CC2(CC(c3cccc(NC(=O)COc4ccc(Cl)cc4)c3)=NO2)CN1C(=O)c1ccccc1 (stereo partly shown)	-22.4
CC1(C)NC(=O)N(CCCCOc2ccc(Cl)cc2C=O)C1=O	-11.8
Cc1c(NC(=O)Nc2ccc([N+](=O)[O-])cc2)c(=O)n(-c2ccccc2)n1C	6.68
O=C(O)CNC(=O)c1ccc(NC(=O)/C(=C/c2cccc([N+](=O)[O-])c2)NC(=O)c2ccco2)cc1	18.9
CC1CC(=O)Nc2ccccc2S1(=O)=O (stereo not shown)	7.89
O=C(Nc1ccc(F)cc1)C1CCN(S(=O)(=O)c2cccs2)CC1	-24.4
CC1(C)NC(=O)N(CNc2cc(Cl)ccc2Cl)C1=O	1.46
COc1cc(/C=C2\SC(=S)N(CCCCC(=O)O)C2=O)ccc1OS(=O)(=O)c1ccc(C)cc1	1.93
CCCn1c(N)c(C(=O)CSc2nc3ccccc3c(=O)n2-c2ccc(OC)cc2)c(=O)[nH]c1=O	6.68
Cc1ccc(C)c(OCCC(=O)Nc2cccc(S(=O)(=O)NC3=NCCCCC3)c2)c1	-15.1
CCn1c2ccccc2c2cc(C3C(C#N)=C(C)NC(C)=C3C#N)ccc21	2.06
CC1Cc2ccccc2N1C(=O)COC(=O)CNC(=O)c1ccc(Br)o1 (stereo not shown)	-60.2
CSc1nc2cc(C)nn2c(-c2ccccc2Cl)c1C#N	11.9
O=C(O)CNC(=O)C(CS)Cc1ccccc1 (stereo not shown)	17.1
COc1ccc(-c2nnn(CC(=O)NCc3ccc4c(c3)OCO4)n2)cc1OC	14.9
NCCSc1c(-c2ccccc2)[nH]c2ccccc12	-12.1
CCCOC(=O)C1=C(C)N(C)C(=O)NC1c1cc2c(cc1Br)OCO2 (stereo not shown)	-0.94
Cc1c(O)nc(SCC(=O)Nc2ccc3c4c(cccc24)CC3)n(-c2ccc(F)cc2)c1=O	-7.83
Cc1cc(C(=O)NNC(=O)c2nn(C)c(=O)c3ccccc23)c(C)o1	-0.338
C[C@H](NC(=O)[C@@H]1Cc2ccccc2CN1)C(=O)Nc1ccc2c(c1)OCO2	14.3
O=C(CN1CCC(C(=O)c2ccc(Cl)cc2)CC1)NC1CCCC1	-19.3

SMILES	hERG current change (%, negative = inhibition) at 10uM [%]
O=C(NCc1cccs1)c1ccc2c(c1)OCCO2	13
CCOC(=O)CCNC(=O)Nc1ccc2nc(C)n(Cc3ccc(Cl)cc3)c(=O)c2c1	-10.5
CCc1nc(C)cn1S(=O)(=O)c1cc(F)ccc1OC	20
CC(C)Cc1nnc(NC(=O)CC(=O)Nc2ccccc2C(=O)O)s1	13.1
O=C(Cn1cnc([N+](=O)[O-])n1)NCc1ccccc1	-3.56
N#CCCN(C(=O)CSc1nc(-c2ccccc2)cn1N)c1ccc(F)cc1	-2.25
O=C(Cc1cccc2ccccc12)Nc1ccc(O)cc1C(=O)O	15.4
CC(C)C(=O)NC(=S)Nc1ccccc1F	0.45
O=C(Cn1ncc2c3ccccc3n(Cc3ccccc3F)c2c1=O)NCC1CCCO1 (stereo not shown)	11
O=C1C=C(NCC2CCCO2)C2(CCCCC2)O1 (stereo not shown)	9.66
COC(=O)c1ccc(NC(=O)Nc2ccc([N+](=O)[O-])cc2)cc1	12.5
Cc1cc2c(cc1C)-c1c(ssc1=Nc1ccc(S(N)(=O)=O)cc1)C(C)(C)N2	18.3
CCCCNS(=O)(=O)c1ccc2nc(SCC(N)=O)[nH]c2c1	15.1
O=C(CCS(=O)(=O)Cc1ccccc1)NCCc1ccccc1	-1.42
COc1ccccc1/C=C/C(=O)N1CCC(c2ccccc2)C1 (stereo not shown)	-4.29
C=CCOC(=O)C1=C[C@@H](c2csc3ccccc23)C[C@@H](OCCCCO)O1	-16.9
O=C(CNC(=O)c1ccco1)OCC(=O)c1ccccc1	9.74
O=C(/C=C/c1ccccc1Cl)NC1CCCCC1	18.8
C=CCC1(N(C(C)=O)c2ccccc2C)CCCCC1	-3.93
O=C(CCNC(=O)c1ccco1)Nc1cccc(Br)c1	-11.6
CCOc1cccc(-c2nnc(SCC(=O)NC3CC3)n2C)c1	-9.81
Cc1ccc(C(=O)COC(=O)CSc2cccc3cccnc23)c(C)c1	4.91

Reference: publication PMC4336329 (PLoS ONE, 2015)
